According to patent US12060433B2, “CD73 inhibitor and A2A/A2B adenosine receptor inhibitor combination therapy” (Incyte Corporation, priority 2020, dated 2024):

Assays:
[1] = biological target: T1, cell surface CD73 on A375 cells (Homo sapiens, UniProt P21589); assay: Binding to cell surface CD73 by flow cytometry (GMFI), A375 cells; type: cell-based; conditions: moderate levels of surface CD73
T1 construct: endogenous in cells; host or cells: A375
T1 sequence (P21589 27-549): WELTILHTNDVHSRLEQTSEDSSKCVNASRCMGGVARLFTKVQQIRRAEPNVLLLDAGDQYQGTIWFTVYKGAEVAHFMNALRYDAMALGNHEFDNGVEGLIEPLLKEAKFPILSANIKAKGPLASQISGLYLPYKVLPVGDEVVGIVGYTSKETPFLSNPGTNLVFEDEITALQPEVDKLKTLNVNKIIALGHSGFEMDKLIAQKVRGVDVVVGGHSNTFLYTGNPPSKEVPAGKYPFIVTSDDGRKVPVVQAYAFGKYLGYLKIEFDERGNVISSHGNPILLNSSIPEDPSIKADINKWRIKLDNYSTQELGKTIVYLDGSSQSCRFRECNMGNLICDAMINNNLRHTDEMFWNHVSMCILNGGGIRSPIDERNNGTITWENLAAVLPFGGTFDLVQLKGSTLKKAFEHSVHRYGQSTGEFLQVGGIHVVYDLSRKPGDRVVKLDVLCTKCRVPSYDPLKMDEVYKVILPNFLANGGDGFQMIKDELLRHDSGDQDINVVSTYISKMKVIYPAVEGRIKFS
Protocol: (§1) To test the binding of humanized and non-humanized CL25 clones to cell surface CD73, MDA-MB-231 or A375 cells were washed and added to 96-well plates at 5×10^4 cells/well. The cells were stained with the indicated concentration of antibodies for 30 minutes on ice (FIG. 2A and FIG. 2B). Next, the cells were washed and stained using goat anti-mouse secondary conjugated to phycoerythrin (PE) for 30 minutes on ice. The cells were then washed and analyzed by flow cytometry. Geometric mean fluorescence intensity (GMFI) of CD73 staining was graphed (FIG. 2A and FIG. 2B).

[2] = biological target: T2, mouse CD73 (SEQ ID NO: 71) (Mus musculus, UniProt Q61503); assay: SPR (Biacore 8K) binding affinity and kinetics to mouse CD73
T2 construct: purchased BPS Bioscience
T2 sequence (Q61503 29-551): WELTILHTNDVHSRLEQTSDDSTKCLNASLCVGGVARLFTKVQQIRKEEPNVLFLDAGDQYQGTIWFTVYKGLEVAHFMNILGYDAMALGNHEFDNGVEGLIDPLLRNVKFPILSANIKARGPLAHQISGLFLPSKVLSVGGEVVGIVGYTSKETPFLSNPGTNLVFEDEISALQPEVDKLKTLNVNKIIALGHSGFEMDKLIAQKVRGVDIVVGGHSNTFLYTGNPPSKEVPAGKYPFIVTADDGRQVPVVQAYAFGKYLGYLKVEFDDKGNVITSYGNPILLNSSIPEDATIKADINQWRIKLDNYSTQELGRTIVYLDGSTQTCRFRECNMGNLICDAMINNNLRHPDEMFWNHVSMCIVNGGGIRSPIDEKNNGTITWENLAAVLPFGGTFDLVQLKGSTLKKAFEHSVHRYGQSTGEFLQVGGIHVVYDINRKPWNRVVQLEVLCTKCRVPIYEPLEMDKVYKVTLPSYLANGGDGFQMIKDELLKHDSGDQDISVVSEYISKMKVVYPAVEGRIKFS
Protocol: (§2) The SPR running buffer (10 mM HEPES, 150 mM NaCl, 3 mM EDTA and 0.05% v/v Surfactant P20, pH 7.4) was prepared from 10×HBS-EP Buffer (GE Healthcare). Anti-human Fc antibodies (GE Healthcare) were immobilized via amine coupling on all sixteen flow cells of an S series sensor chip CM5 (GE Healthcare). The immobilization levels were ˜9000 RU for all flow cells. The desired capturing level of anti-CD73 antibody was achieved by flowing appropriate concentration of anti-CD73 antibody through the active flow cell of each channel. The non-cleavable ADP analogue APCP (adenosine-5′-(α,β-methylene) diphosphate) with the presence of Zn^2+ can be used to shift the CD73 conformational equilibrium from open towards closed. Therefore, recombinant CD73 was incubated with SPR running buffer in the presence of 100 μM APCP and 10 μM ZnCl2 (closed SPR running buffer) to study the binding of anti-CD73 antibody to the CD73 in the closed conformation. To achieve this, the ABA injection feature in Biacore 8K was used. For open conformation, the ABA injection sequence started with 60 seconds injection of running buffer. Then, CD73 3-fold serial dilution concentration series prepared from CD73 stock (BPS Bioscience) and running buffer were injected for 180 seconds immediately followed by running buffer for 240 seconds. […]

[3] = biological target: T3, cellular CD73 on MDA-MB-231 cells (Homo sapiens, UniProt P21589); assay: Cellular CD73 inhibition (AMP-Glo), MDA-MB-231 cells; type: cell-based; conditions: 100 μM AMP, 3 hours
T3 construct: endogenous in cells; host or cells: MDA-MB-231
T3 sequence (P21589 27-549): T1 sequence (P21589 27-549)
Protocol: To measure ability of anti-CD73 antibody to inhibit CD73 activity on cells, A375 and MDA-MB-231 cells were washed with serum free RPMI media (ThermoFisher) and plated in 96-well plates at a concentration of 8×10^4 cells/well for A375 or 1×10^4 cells/well for MDA-MB-231. The cells were incubated with the indicated concentration of antibodies or APCP at 37° C. 5% C02 for 30 minutes (FIG. 3A, FIG. 3B, and FIG. 3C). Next, adenosine monophosphate (AMP) was added to a final concentration of 100 μM and cells were incubated an additional 3 hours at 37° C. 5% CO2. Plates were centrifuged for 1-2 minutes at 300 g and 25 μL of supernatant was transferred into a new 96-well plates. AMP-Glo Assay was used according to the manufacturer's instructions (Promega). Relative luminescence unit (RLU) is directly correlated with the AMP concentration in this assay. Results are depicted in FIG. 3A, FIG. 3B, and FIG. 3C. […] Results are depicted in FIG. 8A and FIG. 8B. […] Cells were incubated with the indicated concentration of antibodies or APCP at 37° C. 5% CO2 for 30 minutes. Next, AMP was added to a final concentration of 100 μM and cells were incubated an additional 3 hours at 37° C. 5% CO2. Plates were centrifuged for 1-2 minutes at 300 g and 25 μL of supernatant was transferred into a new 96-well plates. AMP-Glo Assay was used according to the manufacturer's instructions. […]

[4] = biological target: T4, human CD73 (SEQ ID NO: 70) (Homo sapiens, UniProt P21589); assay: SPR (Biacore 8K) binding affinity and kinetics to human CD73
T4 construct: purchased BPS Bioscience
T4 sequence (P21589 27-549): T1 sequence (P21589 27-549)
Protocol: The SPR running buffer (10 mM HEPES, 150 mM NaCl, 3 mM EDTA and 0.05% v/v Surfactant P20, pH 7.4) was prepared from 10×HBS-EP Buffer (GE Healthcare). Anti-human Fc antibodies (GE Healthcare) were immobilized via amine coupling on all sixteen flow cells of an S series sensor chip CM5 (GE Healthcare). The immobilization levels were ˜9000 RU for all flow cells. The desired capturing level of anti-CD73 antibody was achieved by flowing appropriate concentration of anti-CD73 antibody through the active flow cell of each channel. The non-cleavable ADP analogue APCP (adenosine-5′-(α,β-methylene) diphosphate) with the presence of Zn^2+ can be used to shift the CD73 conformational equilibrium from open towards closed. Therefore, recombinant CD73 was incubated with SPR running buffer in the presence of 100 μM APCP and 10 μM ZnCl2 (closed SPR running buffer) to study the binding of anti-CD73 antibody to the CD73 in the closed conformation. To achieve this, the ABA injection feature in Biacore 8K was used. For open conformation, the ABA injection sequence started with 60 seconds injection of running buffer. Then, CD73 3-fold serial dilution concentration series prepared from CD73 stock (BPS Bioscience) and running buffer were injected for 180 seconds immediately followed by running buffer for 240 seconds. For closed conformation, the normal SPR running buffer was replaced by closed SPR running buffer. Surface was regenerated with 30 seconds injection of 3 M MgCl2. […] Binding affinities and kinetic association and dissociation rate constants to human, cynomolgus, and mouse CD73 in either open or closed conformations are shown in Table 8 below. The results in Table 8 ensure cynomolgus pharmacokinetic data will reflect human pharmacokinetic data.
Binding affinities and kinetic association and dissociation rate constants to human, cynomolgus, and mouse CD73 in either open or closed conformations are shown in Table 9 below.

[5] = biological target: T5, cellular CD73 on A375 cells (Homo sapiens, UniProt P21589); assay: Cellular CD73 inhibition (AMP-Glo), A375 cells; type: cell-based; conditions: 100 μM AMP, 3 hours
T5 construct: endogenous in cells; host or cells: A375
T5 sequence (P21589 27-549): T1 sequence (P21589 27-549)
Protocol: To measure ability of anti-CD73 antibody to inhibit CD73 activity on cells, A375 and MDA-MB-231 cells were washed with serum free RPMI media (ThermoFisher) and plated in 96-well plates at a concentration of 8×10^4 cells/well for A375 or 1×10^4 cells/well for MDA-MB-231. The cells were incubated with the indicated concentration of antibodies or APCP at 37° C. 5% C02 for 30 minutes (FIG. 3A, FIG. 3B, and FIG. 3C). Next, adenosine monophosphate (AMP) was added to a final concentration of 100 μM and cells were incubated an additional 3 hours at 37° C. 5% CO2. Plates were centrifuged for 1-2 minutes at 300 g and 25 μL of supernatant was transferred into a new 96-well plates. AMP-Glo Assay was used according to the manufacturer's instructions (Promega). Relative luminescence unit (RLU) is directly correlated with the AMP concentration in this assay. Results are depicted in FIG. 3A, FIG. 3B, and FIG. 3C. The ability of 3-[…] to inhibit CD73 activity on cells was evaluated as described in Example 3, above. Results are depicted in FIG. 8A and FIG. 8B.

[6] = biological target: T6, cell surface CD73 on MDA-MB-231 cells (Homo sapiens, UniProt P21589); assay: Binding to cell surface CD73 by flow cytometry (GMFI), MDA-MB-231 cells; type: cell-based; conditions: high levels of surface CD73
T6 construct: endogenous in cells; host or cells: MDA-MB-231
T6 sequence (P21589 27-549): T1 sequence (P21589 27-549)
Protocol: as §1
Cells were stained with the indicated concentration of antibodies for 1 hour on ice. Cells were then washed and stained goat anti-mouse secondary conjugated to PE for 30 minute on ice. Cells were then washed and analyzed by flow cytometry. The GMFI of CD73 staining is graphed (FIG. 13).

[7] = biological target: cynomolgus CD73 (SEQ ID NO: 72); assay: SPR (Biacore 8K) binding affinity and kinetics to cynomolgus CD73
Protocol: as §2

[8] = biological target: T7, recombinant human CD73 (rhuCD73) (SEQ ID NO:70) (Homo sapiens, UniProt P21589); assay: Soluble CD73 inhibition (AMP-Glo); type: biochemical; conditions: 0.008 μg/mL rhuCD73, 100 μM AMP
T7 sequence (P21589 27-549): T1 sequence (P21589 27-549)
Protocol: To measure the ability of the CD73 antibodies to inhibit CD73 activity of recombinant protein, recombinant human CD73 (rhuCD73) (SEQ ID NO:70) was added to 96-well plates at a final concentration of 0.008 μg/mL with the indicated concentration of antibodies (FIG. 4) or adenosine 5′-[α,β-methylene]diphosphate (APCP) and incubated at 37° C. 5% CO2 for 30 minutes. After the 30 minute incubation, AMP was added to a final concentration of 100 μM and the reactions were incubated an additional 3 hours at 37° C. 5% CO2. 25 μL of supernatant was transferred into new 96-well plates. The AMP-Glo Assay was used according to the manufacturer's instructions. RLU is a directly correlated with the AMP concentration in this assay. Results are depicted in FIG. 4.
Results are depicted in FIG. 9.

[9] = human CD73, open conformation, 25° C.

B1: HzCL25: humanized version of CL25, IgG1/kappa N297A, VH SEQ ID NO:22, VL SEQ ID NO:23; heavy chain SEQ ID NO:24, light chain SEQ ID NO:25 (antibody)
heavy: EVQLVQSGAEVKKPGESLKISCKGSGYTFTSYGLSWVRQMPGKGLEWMGEIYPGSGNTYYNEKFKGQVTISADKSISTAYLQWSSLKASDTAMYYCARYDYLGSSYGFDYWGAGTTVTVSSASTKGPSVFPLAPSSKSTSGGTAALGCLVKDYFPEPVTVSWNSGALTSGVHTFPAVLQSSGLYSLSSVVTVPSSSLGTQTYICNVNHKPSNTKVDKRV[human IgG1 Fc with changes cut from this listing]
light: DIVMTQSPDSLAVSLGERATINCKASQDVSTAVAWYQQKPGQPPKLLIYSASYRYSGVPDRFSGSGSGTDFTLTISSLQAEDVAVYYCQQHYNTPYTFGGGTKLEIKRTVAAPSVFIFPPSDEQLKSGTASVVCLLNNFYPREAKVQWKVDNALQSGNSQESVTEQDSKDSTYSLSSTLTLSKADYEKHKVYACEVTHQGLSSPVTKSFNRGEC
cell binding (GMFI) [1]: high potency binding
binding to mouse CD73 ([2]; as stated in the description): undetectable binding
KD ([2]; murine CD73, open conformation (merged ka/kd/KD cell where no binding)): No binding
cellular CD73 inhibition [3]: good potency
Kd ([4]; human CD73, as stated in the description): ≤ 0.5 nM
ka [4, 9]: >1e+06 M⁻¹ s⁻¹
kd [4, 9]: 0.000449 s⁻¹
cellular CD73 inhibition [5]: good potency
cell binding (GMFI) [6]: high potency binding
Kd ([7]; cynomolgus CD73, as stated in the description): ≤ 0.5 nM
kd ([7]; cynomolgus CD73, open conformation): 0.000468 s⁻¹
hook-effect in inhibition of recombinant CD73 [8]: no hook-effect
inhibition of recombinant CD73 [8]: high potency
